Results reported in PubChem BioAssay AID360 (National Center for Advancing Translational Sciences (NCATS), 2006).
Out of some 48,000 compounds screened, about 550 (1.1%) were called active. Roughly 4% stayed inconclusive and do not appear here. No stated cut-off is given here; in the data, active means potency below about 15 µM; inconclusive means mostly about 16 µM to 33 µM; inactive means weaker than that. The list shows a part of the results.
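Further: the screen sought inhibitors.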
Potency means the concentration at half of the fitted maximal effect.

The compounds below were run against Lysosomal acid glucosylceramidase (Homo sapiens) (UniProt P04062) (assay: Glucocerebrosidase). Conditions: purified enzyme, resorufin glucoside fluorescence (screen aimed at inhibitors), 20 min.
Sequence of UniProt P04062 (P04062 whole entry, looked up): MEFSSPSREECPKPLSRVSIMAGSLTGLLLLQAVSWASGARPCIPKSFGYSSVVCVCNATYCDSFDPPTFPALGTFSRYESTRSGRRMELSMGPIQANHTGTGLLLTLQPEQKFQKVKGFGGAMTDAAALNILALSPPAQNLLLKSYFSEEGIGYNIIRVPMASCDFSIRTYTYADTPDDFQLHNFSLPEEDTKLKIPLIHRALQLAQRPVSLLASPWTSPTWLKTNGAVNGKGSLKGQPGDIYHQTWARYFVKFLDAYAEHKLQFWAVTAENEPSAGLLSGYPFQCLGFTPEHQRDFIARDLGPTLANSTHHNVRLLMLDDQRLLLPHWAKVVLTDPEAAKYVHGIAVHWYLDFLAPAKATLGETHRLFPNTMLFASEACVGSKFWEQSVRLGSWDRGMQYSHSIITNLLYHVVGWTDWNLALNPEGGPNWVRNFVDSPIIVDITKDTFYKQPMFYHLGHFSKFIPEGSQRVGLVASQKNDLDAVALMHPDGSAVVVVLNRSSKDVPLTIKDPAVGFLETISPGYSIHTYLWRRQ
Method in brief: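 Normal human glucocerebrosidase (0.2 nM final) was assayed with resorufin β-D-glucopyranoside (30 uM final) in 50mM citric acid/KH2PO4, 10mM sodium taurocholate, 0.01% tween-20, pH 5.9. Compounds were titrated; fluorescence (Ex 548, Em 600) read after 20 min at RT.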
Cc1cc(C)n2nc(SCC(=O)c3ccc[nH]3)nc2n1 was tested, and the Potency was inactive: > 76.9 µM. O=C(c1oc2ccccc2c1CSCc1ccccc1)N1CCN(c2ncccn2)CC1 was tested, and the Potency was inactive: > 76.9 µM. With CCOC(=O)C(NC(=O)OC(C)C)(Nc1nccs1)C(F)(F)F (stereo not given) the Potency was inactive: > 76.9 µM. CCN(CC)S(=O)(=O)N1CCC(C(=O)NC2CCCC2)CC1 was tested, and the Potency was inactive: > 76.9 µM. Clc1ccc(C(c2nnnn2C2CCCCC2)N(Cc2cccnc2)Cc2ccco2)cc1 (stereo not given) was tested, and the Potency was active: 12.8 µM. For O=c1cc(C(F)(F)F)c2sc(N3CCCCC3)nc2[nH]1, the Potency was inactive: > 76.9 µM. Cc1cccc(-n2c(CCN3C(=O)c4ccccc4C3=O)nc3ccccc3c2=O)n1 was tested, and the Potency was inactive: > 76.9 µM. For OC(Cn1cncn1)c1ccc(Cl)cc1 (stereo not given), the Potency was inactive: > 76.9 µM. In the case of COC(=O)c1c(C)oc2ccc(NS(=O)(=O)c3cccs3)cc12, the Potency is reported as inactive: > 76.9 µM. CC(=O)c1ccc(N2CCN(C(=O)c3ccc(OCc4c(C)noc4C)cc3)CC2)cc1 was tested, and the Potency was inactive: > 76.9 µM. In the case of Cc1cccn2c(=O)c3cc(C#N)c(=N)n(CCN4CCOCC4)c3nc12, the Potency is reported as inactive: > 76.9 µM. CCc1ccc(OC)c(S(=O)(=O)NCCOc2ccccc2)c1 was tested, and the Potency was inactive: > 76.9 µM. With CCOc1ccccc1C1N(c2ccc(F)cc2)C(=O)C2CCCN21 (stereo not given) the Potency was inactive: > 76.9 µM. CC(C)Oc1ccc(C2CC(=O)NC3=C2C(=O)CCC3)cc1 (stereo not given) was tested, and the Potency was inactive: > 76.9 µM. Cc1ccc2nc(NC3=NCN(C4CCCCC4)CN3)nc(C)c2c1 was tested, and the Potency was inactive: > 76.9 µM. In the case of CCCCC(c1nnnn1C1CCCC1)N1CCN(C(=O)c2ccco2)CC1 (stereo not given), the Potency is reported as inactive: > 76.9 µM. In the case of CC(C)n1nc(C(=O)Nc2nc3ccc(S(C)(=O)=O)cc3s2)c2ccccc2c1=O, the Potency is reported as inactive: > 76.9 µM. With COc1cc(C)c(Cl)cc1S(=O)(=O)NCc1ccncc1 the Potency was inactive: > 76.9 µM. O=c1oc2ccccc2n1CCc1ccccc1 was tested, and the Potency was inactive: > 76.9 µM. For COC(=O)C1=C(C)NC(=O)CC1c1cccc(OC)c1OC (stereo not given), the Potency was inactive: > 76.9 µM. For Cc1ccc(S(=O)(=O)Nn2c(C)nnc2-n2nc(C)cc2C)cc1, the Potency was inactive: > 76.9 µM. COc1ccc2[nH]c3ccc(OC)cc3c2c1 was tested, and the Potency was inactive: > 76.9 µM. For CC1(C)CC(=O)c2cc(OCC(=O)NCC3CCCO3)ccc2O1 (stereo not given), the Potency was inactive: > 76.9 µM. In the case of COc1ccc(S(=O)(=O)Cc2ccc(C(=O)NCCCN(C)c3ccccc3)o2)cc1, the Potency is reported as inactive: > 76.9 µM. In the case of CCOC(=O)c1cccc(NC(=O)c2cc3sccc3n2C)c1, the Potency is reported as inactive: > 15.4 µM.
